Reference: the BET-seq Pho4 binding data (Le et al. 2018)
The other results are listed elsewhere or left out. The energies were worked out here from pooled read counts, against the library average; single values are noisy.

target: T1, Pho4 (S. cerevisiae) (UniProt P07270); assay: relative binding free energy (BET-seq); higher = weaker binding; conditions: reference: library average
T1 sequence: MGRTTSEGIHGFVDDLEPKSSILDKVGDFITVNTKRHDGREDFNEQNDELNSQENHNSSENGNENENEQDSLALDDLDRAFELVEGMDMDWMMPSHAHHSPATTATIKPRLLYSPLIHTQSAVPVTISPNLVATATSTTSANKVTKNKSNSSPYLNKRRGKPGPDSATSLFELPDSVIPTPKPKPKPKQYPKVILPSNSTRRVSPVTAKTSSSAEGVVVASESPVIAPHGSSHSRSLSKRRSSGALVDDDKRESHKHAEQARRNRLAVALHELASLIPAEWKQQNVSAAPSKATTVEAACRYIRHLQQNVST

Sequence	relative binding free energy
ATGTGCACGTGGGGCT	-0.19 kcal/mol
GTATACACGTGCGGCT	0.21 kcal/mol
GGTCGCACGTGATTGT	0.2 kcal/mol
TGAGGCACGTGCTGTT	-0.18 kcal/mol
AGCAGCACGTGTTAGG	-0.02 kcal/mol
TTGTACACGTGGACTT	0.22 kcal/mol
AGGGCCACGTGTTTAG	-0.03 kcal/mol
ATGTTCACGTGTGCCT	0.18 kcal/mol
GGCGACACGTGGTAGT	0.01 kcal/mol
ACGTTCACGTGGTGCG	0.05 kcal/mol
GTCTACACGTGTAGTG	0.19 kcal/mol
GGGGCCACGTGTTTGT	0.05 kcal/mol
TTTAGCACGTGGGTTT	-0.16 kcal/mol
ATTGTCACGTGGGGGG	-0.09 kcal/mol
GTCTGCACGTGTGATT	0.29 kcal/mol
GGACACACGTGTGTTG	0.07 kcal/mol
GGGATCACGTGGGTTT	0.07 kcal/mol
TAGTTCACGTGCGTTA	0.09 kcal/mol
CTTGGCACGTGACTGT	0 kcal/mol
AGGCGCACGTGGCGCG	-0.21 kcal/mol
GTTTGCACGTGTAAGA	0.11 kcal/mol
AAATTCACGTGGGGGC	0.29 kcal/mol
TGTTGCACGTGCAAGA	0.01 kcal/mol

Sequence	relative binding free energy
TATGTCACGTGAAGCT	0.17 kcal/mol
CGCGCCACGTGAGGGG	0.06 kcal/mol
GTAGGCACGTGTATAT	0.06 kcal/mol
GGAGGCACGTGTGAAA	0.16 kcal/mol
GGTTTCACGTGAAGGC	0.24 kcal/mol
GGATGCACGTGGTTCT	-0.08 kcal/mol
ATTGGCACGTGGACGT	-0.1 kcal/mol
TAGAGCACGTGCGTGG	-0.11 kcal/mol
AATGTCACGTGCTGGA	0.12 kcal/mol
ATGGGCACGTGTGCAA	-0.18 kcal/mol
GAGGGCACGTGGTGCG	-0.12 kcal/mol
GTCGGCACGTGGGGCG	-0.14 kcal/mol
AGAGGCACGTGTTGGC	-0.11 kcal/mol
TATTGCACGTGGGGCG	-0.1 kcal/mol
AAGTTCACGTGGATCG	0.28 kcal/mol
GTAGTCACGTGCTGTA	-0.02 kcal/mol
GGGTTCACGTGCGTGA	0.34 kcal/mol
TCTTTCACGTGTGTTA	0.29 kcal/mol
GAAGCCACGTGTGGGG	0.03 kcal/mol
TGTGCCACGTGCGTTG	-0.13 kcal/mol
AGAGTCACGTGTAGGC	0.1 kcal/mol
AGATACACGTGTGTTG	0.1 kcal/mol
TCAGTCACGTGATTTA	0.19 kcal/mol

Sequence	relative binding free energy
GTTAACACGTGTGAAT	0.03 kcal/mol
GAGTTCACGTGAAGGC	0.53 kcal/mol
AGTCGCACGTGGTGGT	-0.17 kcal/mol
GAGGGCACGTGTCGGC	-0.1 kcal/mol
TTTTTCACGTGTAGGT	0.21 kcal/mol
TCAGGCACGTGTGATT	0.03 kcal/mol
GTAATCACGTGGGTGG	0.07 kcal/mol
AGTTTCACGTGGGTCG	0.18 kcal/mol
AAGGCCACGTGGTTTT	-0.12 kcal/mol
TCTAGCACGTGGTGTA	-0.12 kcal/mol
TTTTACACGTGCTGTT	0 kcal/mol
TGAGTCACGTGGTGCG	-0.05 kcal/mol
AATATCACGTGGTTTT	0.13 kcal/mol
TCGGTCACGTGGGGGA	-0.02 kcal/mol
CAAGGCACGTGTAAGT	0.05 kcal/mol
ATCGGCACGTGCGTGT	-0.26 kcal/mol
AGGTGCACGTGAAGAT	0.1 kcal/mol
CGTGTCACGTGTGGCT	0.13 kcal/mol
GTGTTCACGTGTGTCG	0.34 kcal/mol
GTAGGCACGTGCTGTA	-0.16 kcal/mol
TTGAGCACGTGCGGAG	-0.17 kcal/mol
ATGGGCACGTGGCATT	-0.26 kcal/mol
ATGTTCACGTGACAGG	0.24 kcal/mol

Sequence	relative binding free energy
TTTATCACGTGACTTT	0.25 kcal/mol
AAGATCACGTGTGGTG	0.15 kcal/mol
ATGTTCACGTGGTTAG	0.19 kcal/mol
AGGGCCACGTGGTTTA	-0.14 kcal/mol
TTCGGCACGTGGCCGG	-0.09 kcal/mol
GAGTGCACGTGTGGGT	0.16 kcal/mol
GACGGCACGTGGAGGT	0.06 kcal/mol
ATGGACACGTGTGGAA	0.16 kcal/mol
GCTGGCACGTGAAGTG	0.11 kcal/mol
GTGTACACGTGAGCTG	0.22 kcal/mol
AATTGCACGTGAAGTT	0.13 kcal/mol
AATATCACGTGGCGGT	0.07 kcal/mol
AGTGACACGTGGTTTT	0.11 kcal/mol
ATATTCACGTGGCGCG	0.27 kcal/mol
ATGTACACGTGTGGGA	0.12 kcal/mol
GTGGGCACGTGTTAGC	-0.03 kcal/mol
CTTATCACGTGAGTTA	0.34 kcal/mol
AGTGGCACGTGATCAG	-0.12 kcal/mol
TACATCACGTGTGTAG	0.19 kcal/mol
TTAGGCACGTGAAAGT	0.02 kcal/mol
TGCATCACGTGGGGGC	0.05 kcal/mol
GGAGGCACGTGTGCGC	-0.09 kcal/mol
TTGCACACGTGAGGTA	0.19 kcal/mol

Sequence	relative binding free energy
TTGTGCACGTGAAAAT	0.26 kcal/mol
TATAGCACGTGTGTTC	-0.04 kcal/mol
TGAAGCACGTGAGATT	0.28 kcal/mol
GATGTCACGTGTAATA	0.3 kcal/mol
TTTTACACGTGATAAG	0.19 kcal/mol
AATTTCACGTGATTCT	0.29 kcal/mol
TTTGTCACGTGGGCAA	-0.03 kcal/mol
ATGCTCACGTGGGTGC	0.02 kcal/mol
TAAGACACGTGGGTTA	-0.04 kcal/mol
TTTTTCACGTGATTAT	0.41 kcal/mol
GTCATCACGTGTATTT	0.14 kcal/mol
ATGTGCACGTGGTGCT	-0.09 kcal/mol
TAGGTCACGTGTGTCT	0.12 kcal/mol
ATCGGCACGTGTAGTG	-0.06 kcal/mol
GTTCTCACGTGGAGGA	0.39 kcal/mol
TGCGACACGTGGGTAG	-0.1 kcal/mol
CGTGTCACGTGGCGGT	-0.07 kcal/mol
TAGGCCACGTGGTTTT	-0.08 kcal/mol
TTGTCCACGTGTAGGC	0.17 kcal/mol
GTCGTCACGTGGAATG	0.18 kcal/mol
GAGGACACGTGTGGCT	0.17 kcal/mol
CGGGGCACGTGGAATT	0.02 kcal/mol
CGTAACACGTGCGTGT	-0.1 kcal/mol
